{
  "source": "paper PMC4336329",
  "about": "(PLoS ONE, 2015)",
  "note": "Hit rate of the full screen: of about 310,000 compounds, about 2,200 (0.71%) showed an effect of 50% or more. Effects have a minus sign here. Some of the results follow.",
  "data": [
    {"biological_target": "human ether-à-go-go-related gene (hERG) potassium channel (human, UniProt Q12809)", "sequence (Q12809 whole entry, looked up)": "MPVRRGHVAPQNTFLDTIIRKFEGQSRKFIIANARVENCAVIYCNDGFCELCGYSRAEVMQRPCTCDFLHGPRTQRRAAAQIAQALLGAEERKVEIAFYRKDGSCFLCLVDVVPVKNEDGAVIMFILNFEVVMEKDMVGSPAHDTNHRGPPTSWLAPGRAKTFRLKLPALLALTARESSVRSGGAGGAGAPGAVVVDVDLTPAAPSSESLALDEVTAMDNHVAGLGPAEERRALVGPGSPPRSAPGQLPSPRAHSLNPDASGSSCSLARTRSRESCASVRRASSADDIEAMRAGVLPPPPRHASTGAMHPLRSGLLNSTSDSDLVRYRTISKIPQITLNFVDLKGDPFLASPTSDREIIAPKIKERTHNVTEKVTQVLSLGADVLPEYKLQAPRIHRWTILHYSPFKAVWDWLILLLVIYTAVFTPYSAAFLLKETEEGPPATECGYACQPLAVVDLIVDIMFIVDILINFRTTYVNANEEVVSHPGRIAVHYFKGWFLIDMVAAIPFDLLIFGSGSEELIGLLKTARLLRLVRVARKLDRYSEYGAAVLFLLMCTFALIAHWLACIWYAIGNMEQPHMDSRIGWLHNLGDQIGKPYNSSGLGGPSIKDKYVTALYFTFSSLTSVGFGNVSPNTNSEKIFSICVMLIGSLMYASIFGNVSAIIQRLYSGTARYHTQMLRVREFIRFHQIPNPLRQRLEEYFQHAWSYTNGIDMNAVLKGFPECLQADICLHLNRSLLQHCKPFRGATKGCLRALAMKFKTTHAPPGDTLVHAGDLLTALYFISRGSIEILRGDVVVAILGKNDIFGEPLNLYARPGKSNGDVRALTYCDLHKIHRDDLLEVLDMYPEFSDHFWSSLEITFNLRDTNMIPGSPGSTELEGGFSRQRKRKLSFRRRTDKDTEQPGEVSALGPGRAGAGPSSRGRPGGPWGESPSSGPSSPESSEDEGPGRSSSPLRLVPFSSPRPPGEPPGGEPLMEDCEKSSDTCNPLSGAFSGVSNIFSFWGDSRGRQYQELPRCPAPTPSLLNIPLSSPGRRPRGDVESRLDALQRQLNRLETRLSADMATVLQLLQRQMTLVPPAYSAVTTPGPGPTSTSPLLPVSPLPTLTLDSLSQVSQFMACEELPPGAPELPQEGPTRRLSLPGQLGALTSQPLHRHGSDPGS", "assay": "primary screen, population patch clamp on CHO cells stably expressing hERG", "units": {"hERG current change (%, negative = inhibition) at 1uM": "%"}, "values": [
      {"compound": "O=C(Oc1ccccc1)n1c(=S)oc2ccccc21", "hERG current change (%, negative = inhibition) at 1uM": 12.8},
      {"compound": "CC1(C(=O)O)Sc2[nH]c(=O)sc2C2c3ccccc3OC(=O)C21", "note": "(stereo not shown)", "hERG current change (%, negative = inhibition) at 1uM": 15.7},
      {"compound": "CCOC(=O)CCc1c(C)nc(SCCN2CCCC2)c(C#N)c1C", "hERG current change (%, negative = inhibition) at 1uM": -19.8},
      {"compound": "CC1CCCC(C)N1C(=O)CSc1ccc(-c2ccc3c(c2)OCCO3)nn1", "note": "(stereo not shown)", "hERG current change (%, negative = inhibition) at 1uM": -1.69},
      {"compound": "COc1ccc(C)cc1NC(=O)Cn1cnc2sc(C)c(S(=O)(=O)N3CCOCC3)c2c1=O", "hERG current change (%, negative = inhibition) at 1uM": 10.3},
      {"compound": "Cc1ccc2c(c1)c1c3n2CCN(CCC(=O)O)C3CCC1", "note": "(stereo not shown)", "hERG current change (%, negative = inhibition) at 1uM": 9.52},
      {"compound": "COc1cc(OC)c(NC(=O)c2sc3ncn(CC(=O)N4CCOCC4)c(=O)c3c2C)cc1Cl", "hERG current change (%, negative = inhibition) at 1uM": 14.4},
      {"compound": "Cc1ccc(S(=O)(=O)N2CCCN(S(=O)(=O)c3ccc4ccccc4c3)CC2)cc1", "hERG current change (%, negative = inhibition) at 1uM": 11.3},
      {"compound": "CC1C(=O)N2CCCc3cc(NC(=O)C(=O)NCCN4CCOCC4)cc1c32", "note": "(stereo not shown)", "hERG current change (%, negative = inhibition) at 1uM": 12.2},
      {"compound": "O=S(=O)(NC1=NCCCCC1)c1ccc(F)cc1", "hERG current change (%, negative = inhibition) at 1uM": 8.98},
      {"compound": "COc1ccc(NS(=O)(=O)c2ccc(C)c(C(=O)NCc3cccnc3)c2)cc1", "hERG current change (%, negative = inhibition) at 1uM": 7.85},
      {"compound": "O=C(c1ccc(OC2CCN(Cc3ccccc3C(F)(F)F)CC2)cc1)N1CCCCC1", "hERG current change (%, negative = inhibition) at 1uM": 11.5},
      {"compound": "COC(=O)c1[nH]c(C)c(/C(O)=C2\\C(=O)C(=O)N(CCN3CCOCC3)C2c2ccc(C)o2)c1C", "note": "(stereo not shown)", "hERG current change (%, negative = inhibition) at 1uM": -2.34},
      {"compound": "Cc1cccc(N(CC(=O)NCC2CCCO2)C(=O)CCC(=O)Nc2nccs2)c1", "note": "(stereo not shown)", "hERG current change (%, negative = inhibition) at 1uM": 13},
      {"compound": "COc1ccc(OCC(=O)Nc2nnc(C)s2)cc1", "hERG current change (%, negative = inhibition) at 1uM": 12.8},
      {"compound": "Cc1oc(-c2ccccc2Cl)nc1CS(=O)(=O)CC(=O)NC(C)c1ccccc1", "note": "(stereo not shown)", "hERG current change (%, negative = inhibition) at 1uM": 11.5},
      {"compound": "O=C(NC1CCCCC1)c1cc(-c2ccco2)on1", "hERG current change (%, negative = inhibition) at 1uM": 13},
      {"compound": "NP(=O)(OCC(F)(F)F)Oc1cccc2ccccc12", "note": "(stereo not shown)", "hERG current change (%, negative = inhibition) at 1uM": 4.02},
      {"compound": "CC(C)(C)C(=O)CN1C(=O)NC2(CCOc3ccccc32)C1=O", "note": "(stereo not shown)", "hERG current change (%, negative = inhibition) at 1uM": 15.9},
      {"compound": "Cc1noc(C)c1C(=O)Nc1ccccc1N1CCCC1", "hERG current change (%, negative = inhibition) at 1uM": 6.57},
      {"compound": "CCC(C)/C(C)=N/NC(=O)c1ccc(CSc2nc3ccccc3s2)cc1", "note": "(stereo not shown)", "hERG current change (%, negative = inhibition) at 1uM": -2.07},
      {"compound": "COc1ccc(NC(=O)c2cc(=O)[nH]c(=O)[nH]2)cc1S(=O)(=O)Nc1ccccc1Cl", "hERG current change (%, negative = inhibition) at 1uM": 5.23},
      {"compound": "O=C1c2[nH]nc(-c3ccccc3O)c2C(c2cccc(Cl)c2)N1CC1CCCO1", "note": "(stereo not shown)", "hERG current change (%, negative = inhibition) at 1uM": 11.6},
      {"compound": "C=CCn1c(COc2ccc(OC)cc2)nnc1SCn1nnc2ccccc2c1=O", "hERG current change (%, negative = inhibition) at 1uM": -2.1},
      {"compound": "COc1ccc(OCC#CCN2CC(C)OC(C)C2)cc1.O=C(O)C(=O)O", "note": "(stereo not shown)", "hERG current change (%, negative = inhibition) at 1uM": 2.64},
      {"compound": "C=CCN(Cc1nc(-c2ccc(OC)c(OC)c2)oc1C)C1CCS(=O)(=O)C1", "note": "(stereo not shown)", "hERG current change (%, negative = inhibition) at 1uM": 11.4},
      {"compound": "O=C(COc1ccc(NC(=O)c2cccs2)cc1)c1ccc(F)cc1", "hERG current change (%, negative = inhibition) at 1uM": 14.1},
      {"compound": "CCCc1ccc(OCCNC(=O)c2ccccc2Br)cc1", "hERG current change (%, negative = inhibition) at 1uM": 11.6},
      {"compound": "COc1ccc(S(=O)(=O)Nc2cc(C(=O)NCCCOC(C)C)ccc2N2CCOCC2)cc1", "hERG current change (%, negative = inhibition) at 1uM": 6.26},
      {"compound": "Cc1ccc(C)c(NC(=O)CN(C)C(=O)Cc2coc3cc(C)c(C)cc23)c1", "hERG current change (%, negative = inhibition) at 1uM": 7.55},
      {"compound": "CC1=CC(C)(C)n2c(O)c(C3=NC(=S)NC3=O)c3cc(OC(=O)c4cccc5ccccc45)cc1c32", "hERG current change (%, negative = inhibition) at 1uM": 17.3},
      {"compound": "NC(=O)CSc1nnc(Cc2ccc3c(c2)OCO3)o1", "hERG current change (%, negative = inhibition) at 1uM": -7.08},
      {"compound": "Cn1c(=O)c2c(nc(CN3CCc4ccccc4C3)n2CCCO)n(C)c1=O", "hERG current change (%, negative = inhibition) at 1uM": -0.628},
      {"compound": "COc1ccc(CNC(=O)C(c2ccco2)N(Cc2ccccc2)C(=O)Cc2cccs2)cc1", "note": "(stereo not shown)", "hERG current change (%, negative = inhibition) at 1uM": 13.1},
      {"compound": "Cc1ccc(S(=O)(=O)CCC(=O)Nc2nc(-c3cccnc3)cs2)cc1", "hERG current change (%, negative = inhibition) at 1uM": 15.1},
      {"compound": "COc1ccc2oc(-c3ccccc3)c(C(=O)N3CCOCC3)c2c1", "hERG current change (%, negative = inhibition) at 1uM": 8.86},
      {"compound": "CCN(CC)S(=O)(=O)c1ccc(N2CCOCC2)c(NC(=O)c2c3c(nc4ccccc24)CCC3)c1", "hERG current change (%, negative = inhibition) at 1uM": 6.32},
      {"compound": "Cc1ccccc1OCC(=O)OCC(=O)Nc1cc(S(C)(=O)=O)ccc1Cl", "hERG current change (%, negative = inhibition) at 1uM": 1.96},
      {"compound": "COc1ccc(-c2nc(N)nc(C(F)(F)F)c2-c2csc(C)n2)c(O)c1", "hERG current change (%, negative = inhibition) at 1uM": 8.04},
      {"compound": "COc1cc(/C=N/N(C)C2=NS(=O)(=O)c3ccccc32)cc(OC)c1OC", "hERG current change (%, negative = inhibition) at 1uM": 15.4},
      {"compound": "Cn1cc(NC(=O)Nc2ccc(C(F)(F)F)cc2)c(C(F)(F)F)n1", "hERG current change (%, negative = inhibition) at 1uM": 11.9},
      {"compound": "COc1cccc(C(=O)C[n+]2cccc3cc(OC)ccc32)c1.[Br-]", "hERG current change (%, negative = inhibition) at 1uM": 17.7},
      {"compound": "COC(=O)c1ccc(CC(=O)c2nc3ccccc3s2)cc1", "hERG current change (%, negative = inhibition) at 1uM": 17.1},
      {"compound": "Cc1ccc(NC(=O)COC(=O)c2ccc(=O)n(Cc3ccccc3)n2)cc1F", "hERG current change (%, negative = inhibition) at 1uM": 12.2},
      {"compound": "C=CCn1c(SCC(=O)N(C)C2CCS(=O)(=O)C2)nc2ccccc2c1=O", "note": "(stereo not shown)", "hERG current change (%, negative = inhibition) at 1uM": -36.1},
      {"compound": "COc1ccc(C(=O)NC2CCCN(Cc3ccc(Cl)cc3)C2)c(OC)c1", "note": "(stereo not shown)", "hERG current change (%, negative = inhibition) at 1uM": -4.67},
      {"compound": "CC(=O)Nc1nonc1NC(=O)CSc1nc2ccccc2o1", "hERG current change (%, negative = inhibition) at 1uM": -2.2},
      {"compound": "Cc1cc(C(=O)NCCc2ccccc2)ccc1[N+](=O)[O-]", "hERG current change (%, negative = inhibition) at 1uM": 8.52},
      {"compound": "O=C(c1ccccc1)N(C1=NCCCCS1)c1ccccc1", "hERG current change (%, negative = inhibition) at 1uM": 0.649},
      {"compound": "CCOc1cc(CNc2ccccc2SC)ccc1O", "hERG current change (%, negative = inhibition) at 1uM": 1.93},
      {"compound": "COc1ccc(CCNC(=O)CSc2nnc(Cc3csc(N)n3)n2C)cc1OC", "hERG current change (%, negative = inhibition) at 1uM": 3.32},
      {"compound": "Fc1ccc(CNC(=S)Nc2ccccc2F)cc1", "hERG current change (%, negative = inhibition) at 1uM": 8.43},
      {"compound": "CCC(=O)Nc1ccc(NC(=O)CSc2nnnn2C(C)C)cc1", "hERG current change (%, negative = inhibition) at 1uM": 4.83},
      {"compound": "COC(=O)C(NS(=O)(=O)c1cccc(S(=O)(=O)NC(C(=O)OC)c2ccccc2)c1)c1ccccc1", "note": "(stereo not shown)", "hERG current change (%, negative = inhibition) at 1uM": -35.5},
      {"compound": "COc1ccccc1Nc1nc(C)c(C(=O)Nc2ccccc2)s1", "hERG current change (%, negative = inhibition) at 1uM": 13.6}
    ]}
  ]
}
